In assay [1] the target is T1, SAX-3::3XFLAG (HEK293T) (C. elegans) (UniProt G5EBF1).
T1 sequence: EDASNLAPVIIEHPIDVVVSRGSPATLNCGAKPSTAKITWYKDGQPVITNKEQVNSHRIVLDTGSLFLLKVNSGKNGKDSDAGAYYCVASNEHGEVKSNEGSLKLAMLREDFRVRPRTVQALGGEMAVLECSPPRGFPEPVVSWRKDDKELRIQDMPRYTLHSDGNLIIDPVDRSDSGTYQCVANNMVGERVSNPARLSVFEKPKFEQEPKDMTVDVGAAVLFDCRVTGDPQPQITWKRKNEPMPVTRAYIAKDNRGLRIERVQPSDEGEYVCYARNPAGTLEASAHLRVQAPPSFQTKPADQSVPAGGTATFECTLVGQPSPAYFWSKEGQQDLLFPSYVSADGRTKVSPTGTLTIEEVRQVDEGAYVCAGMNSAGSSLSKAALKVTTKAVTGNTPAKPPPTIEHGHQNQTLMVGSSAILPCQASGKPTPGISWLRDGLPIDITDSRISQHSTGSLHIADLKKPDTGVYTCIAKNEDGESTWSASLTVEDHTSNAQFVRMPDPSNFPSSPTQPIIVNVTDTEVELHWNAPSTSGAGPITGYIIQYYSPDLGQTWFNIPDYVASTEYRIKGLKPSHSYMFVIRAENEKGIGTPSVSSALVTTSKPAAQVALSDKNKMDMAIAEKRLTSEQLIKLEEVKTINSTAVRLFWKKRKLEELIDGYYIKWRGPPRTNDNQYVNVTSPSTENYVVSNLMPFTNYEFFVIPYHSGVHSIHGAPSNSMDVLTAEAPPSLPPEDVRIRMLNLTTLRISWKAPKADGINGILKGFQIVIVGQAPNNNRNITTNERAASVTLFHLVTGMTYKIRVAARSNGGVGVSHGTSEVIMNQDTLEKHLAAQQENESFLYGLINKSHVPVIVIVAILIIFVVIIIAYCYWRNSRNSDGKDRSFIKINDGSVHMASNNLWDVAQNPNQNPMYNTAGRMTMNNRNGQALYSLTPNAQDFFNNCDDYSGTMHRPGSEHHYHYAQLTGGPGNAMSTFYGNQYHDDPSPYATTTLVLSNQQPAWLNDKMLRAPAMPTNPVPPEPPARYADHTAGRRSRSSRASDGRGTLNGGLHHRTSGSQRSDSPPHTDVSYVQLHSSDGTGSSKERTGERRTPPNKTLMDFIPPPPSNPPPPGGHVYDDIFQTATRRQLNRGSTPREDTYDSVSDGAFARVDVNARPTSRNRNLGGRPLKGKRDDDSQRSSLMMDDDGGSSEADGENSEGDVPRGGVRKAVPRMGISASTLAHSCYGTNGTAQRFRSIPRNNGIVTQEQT
The assay can be described thus: co-IP; FLAG-tagged receptor on transfected HEK293T cells incubated with 10x concentrated conditioned medium holding the HA- and Gaussia luciferase-tagged ligand, 4 hours at 4°C; cells lysed in TNTE buffer (0.5% Triton X-100), anti-FLAG immunoprecipitation, luciferase activity of the washed immunoprecipitate, normalised to receptor level.

For assay [2], the target named is T2, 3XFLAG::UNC-40 (HEK293T) (C. elegans) (UniProt G5EF96).
T2 sequence: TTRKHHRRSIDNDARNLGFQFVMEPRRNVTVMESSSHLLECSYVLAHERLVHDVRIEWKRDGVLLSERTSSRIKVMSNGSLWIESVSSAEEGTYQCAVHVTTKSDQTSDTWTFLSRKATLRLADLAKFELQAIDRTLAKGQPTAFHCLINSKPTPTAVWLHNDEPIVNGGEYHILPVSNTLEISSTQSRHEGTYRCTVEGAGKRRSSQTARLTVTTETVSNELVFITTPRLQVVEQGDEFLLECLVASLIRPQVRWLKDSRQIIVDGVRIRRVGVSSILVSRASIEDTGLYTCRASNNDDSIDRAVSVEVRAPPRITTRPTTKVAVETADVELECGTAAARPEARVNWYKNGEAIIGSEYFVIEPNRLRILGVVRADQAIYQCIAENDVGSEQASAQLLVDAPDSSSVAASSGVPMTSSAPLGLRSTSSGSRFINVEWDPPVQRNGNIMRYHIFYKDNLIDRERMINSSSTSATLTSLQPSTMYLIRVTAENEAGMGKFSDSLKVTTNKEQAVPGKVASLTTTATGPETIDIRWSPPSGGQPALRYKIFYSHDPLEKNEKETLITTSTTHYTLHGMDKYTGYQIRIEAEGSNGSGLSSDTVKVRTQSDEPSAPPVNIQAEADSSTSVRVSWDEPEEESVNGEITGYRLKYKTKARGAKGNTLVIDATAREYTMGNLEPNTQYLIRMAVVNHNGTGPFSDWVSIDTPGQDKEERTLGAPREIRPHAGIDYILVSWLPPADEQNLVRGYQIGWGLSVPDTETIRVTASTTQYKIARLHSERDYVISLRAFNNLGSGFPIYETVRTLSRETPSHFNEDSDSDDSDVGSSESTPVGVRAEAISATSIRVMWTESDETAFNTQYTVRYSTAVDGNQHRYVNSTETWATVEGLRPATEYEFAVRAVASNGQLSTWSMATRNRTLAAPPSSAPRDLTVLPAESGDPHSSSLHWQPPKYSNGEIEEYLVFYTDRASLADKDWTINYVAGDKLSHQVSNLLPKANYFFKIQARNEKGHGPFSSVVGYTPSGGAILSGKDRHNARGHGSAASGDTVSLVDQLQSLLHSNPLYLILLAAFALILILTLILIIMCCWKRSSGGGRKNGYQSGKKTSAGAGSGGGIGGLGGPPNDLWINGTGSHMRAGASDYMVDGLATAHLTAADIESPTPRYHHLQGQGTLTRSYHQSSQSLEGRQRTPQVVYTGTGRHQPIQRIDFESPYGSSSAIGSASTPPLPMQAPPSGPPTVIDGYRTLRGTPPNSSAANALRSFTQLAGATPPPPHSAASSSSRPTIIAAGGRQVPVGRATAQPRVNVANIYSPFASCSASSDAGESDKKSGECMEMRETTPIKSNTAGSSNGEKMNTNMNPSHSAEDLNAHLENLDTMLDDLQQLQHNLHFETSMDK
The assay is described as above.

No constants are given. Whether binding was seen depends on the method and setting. In cells and extracts the contact can be indirect. Some results given as binding are weak or reduced against the parent protein; the word gives no strength. Sequences can lack the tags named with a protein.

Experimental findings from publication PMC4133157 are described below.

B1: HA::SLT-1::Gaussia luciferase (ligand, UniProt G5EFX6 17-1410)
chain: CPAECVCVDRTVSCVGQQLTEVPQNIPNDTIRLDLQDNEITKIGPNDFSSLMNLKALQLMDNQIVTIHNQSFSSLVFLQKLRLSRNRIRHLPDNVFQNNLKLTHLDLSENDITVVSDAQLQGPEFLEVLNLDKNHIFCLENNVISSWVSLEVLTLNGNRLTTFEEPSNARFRQLDLFNNPWNCDCRLRWMRKWLEKAEGQNKTVCATPLNLQGSSIEILQDKFMTCSGNRKRRYKKTCETAEICPLPCTCTGTTVDCRDSGLTYVPTNLPPSTTEIRLEQNQISSIPSHSFKNLKNLTRLDLSKNIITEIQPKAFLGLHNLHTLVLYGNNITDLKSDTFEGLGSLQLLLLNANQLTCIRRGTFDHVPKLSMLSLYDNDIKSISEVTFQNLTSLSTLHLAKNPLICDCNLQWLAQINLQKNIETSGARCEQPKRLRKKKFATLPPNKFKCKGSESFVSMYADSCFIDSICPTQCDCYGTTVDCNKRGLNTIPTSIPRFATQLLLSGNNISTVDLNSNIHVLENLEVLDLSNNHITFINDKSFEKLSKLRELRLNDNKLHHFSSMVLDEQSNLEILDLSGNNIQCFSSIFFNKATRIREIKVIGNDLLCDCRILPLMSWLRSNSSHSIDIPPCQQFQYSDNESDKQRCAAFPEETCSDDSNLCPPKCSCLDRVVRCSNKNLTSFPSRIPFDTTELYLDANYINEIPAHDLNRLYSLTKLDLSHNRLISLENNTFSNLTRLSTLIISYNKLRCLQPLAFNGLNALRILSLHGNDISFLPQSAFSNLTSITHIAVGSNSLYCDCNMAWFSKWIKSKFIEAGIARCEYPNTVSNQLLLTAQPYQFTCDSKVPTKLATKCDLCLNSPCKNNAICETTSSRKYTCNCTPGFYGVHCENQIDACYGSPCLNNATCKVAQAGRFNCYCNKGFEGDYCEKNIDDCVNSKCENGGKCVDLINSYRCDCPMEYEGKHCEDKLEYCTKKLNPCENNGKCIPINGSYSCMCSPGFTGNNCETNIDDCKNVECQNGGSCVDGILSYDCLCRPGYAGQYCEIPPMMDMEYQKTDACQQSACGQGECVASQNSSDFTCKCHEGFSGPSCDRQMSVGFKNPGAYLALDPLASDGTITMTLRTTSKIGILLYYGDDHFVSAELYDGRVKLVYYIGNFPASHMYSSVKVNDGLPHRISIRTSERKCFLQIDKNPVQIVENSGKSDQLITKGKEMLYIGGLPIEKSQDAKRRFHVKNSESLKGCISSITINEVPINLQQALENVNTEQSCSATVNFCAGIDCGNGKCTNNALSPKGYMCQCDSHFSGEHCDEKRIKCDKQKFRRHHIENECRSVDRIKIAECNGYCGGEQNCCTAVKKKQRKVKMICKNGTTKISTVHIIRQCQCEPTKSVLSEK
Consider B1, for which the figures for the binding result in assay [1] and in assay [2] were “binds” and “no binding”, respectively.
